Data taken from PubChem BioAssay AID651820 (National Center for Advancing Translational Sciences (NCATS), 2012).
The whole screen tested about 340,000 compounds, of which about 12,000 (3.5%) were called active. Inconclusive means that the source gave no clear call. Such entries were picked first, then a sample of the others. The call rests on the fitted dose curve; in most records, active means well fitted inhibition curve with a large enough effect; inconclusive means small, poorly fitted or top-dose-only effect, or another doubt; inactive means no such curve, though single readings can be large or run the other way. Potencies of inconclusive entries are left out as doubtful fits.

experiment: qHTS Assay for Inhibitors of Hepatitis C Virus (HCV); conditions: Huh7.5.1 HCVcc-Cre (HCVcc is cell-culture hepatitis C virus) infection, luciferase reporter, 44 h; activity change, negative = inhibition: at 41.8 µM (top of the series) unless noted
Method in brief: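 Cells (1,000/well) were plated 4 h before compound, then infected with HCVcc-Cre virus (~0.5 moi). After 44 h further culture, infection was read as luciferase luminescence following a 15 min substrate incubation at room temperature.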
On the % scale 0 is the no-effect control and ±100 the full control effect; potency means the concentration at half of the fitted maximal effect; tags describe the fitted curve by direction and shape.

Row | SMILES | activity change, negative = inhibition | Potency
1 | O=C(CCc1nnc2ccc(NCc3ccco3)nn12)Nc1ccc(F)cc1 | inactive: 1.17% | 
2 | COc1ccccc1-n1c(SCC(=O)N2CCOCC2)nc2ccccc2c1=O |  | inconclusive [inhibitor, single point]
3 | CCn1c(SCC(=O)Nc2ccc(C(C)=O)cc2)nc2ccccc21 | inactive: -18.8% | 
4 | O=C(C[C@@H]1C/C=C\C[C@H](Cc2ccc(F)cc2)C(=O)OC[C@@H]2CCCN2C1=O)N[C@H](CO)Cc1ccccc1 |  | inconclusive [inhibitor, partial curve]
5 | CCOC(=O)C(Oc1ccc2c(-c3ccccc3)cc(=O)oc2c1C)c1ccccc1 (stereo not drawn) |  | inconclusive [inhibitor, single point]
6 | COc1ccc(CN2CC(=O)N3[C@H]4c5ccc(OC)cc5OC[C@@H]4[C@H](c4ccccc4)[C@]3(C)C2=O)cc1 |  | inconclusive [inhibitor, partial curve]
7 | Cn1cccc1C(=O)NC(=O)COC(=O)c1ccc(S(C)(=O)=O)c([N+](=O)[O-])c1 |  | inconclusive [inhibitor, single point]
8 | Clc1ccc(Nc2nc(-c3ccncc3)cs2)cc1 |  | inconclusive [inhibitor, full curve, poor fit]
9 | Cc1ccc(-n2cnc3c(sc4nc(N5CCOCC5)c5c(c43)CCCC5)c2=O)cc1 |  | inconclusive [inhibitor, partial curve]
10 | CC(=O)c1c(C)[nH]c(C(=O)OCC(=O)NCc2cccs2)c1C |  | inconclusive [inhibitor, partial curve]
11 | COc1ccc(C(=O)Nc2ccc(NC(=O)c3cccs3)c(OC)c2)cc1Cl |  | inconclusive [inhibitor, partial curve]
12 | CSCc1c(C(=O)N2CCCc3ccccc32)oc2ccccc12 |  | inconclusive [inhibitor, partial curve, poor fit]
13 | C/C(N)=C(/C#N)C(=O)CSc1n[nH]c(-c2ccccc2Br)n1 |  | inactive
14 | N[C@@H](Cc1ccc(O)c(O)c1)C(=O)O |  | inconclusive [inhibitor, partial curve]
15 | Cc1cc(C(=O)CCl)c(C)n1CCc1ccccc1 |  | active: 8.91 µM
16 | Cc1nnc(SCC(=O)Nc2ccc3c(c2)COC3=O)n1-c1ccccc1 |  | inconclusive [inhibitor, single point]
17 | Cc1ccc(C)c2[nH]c(=O)c(CN(CCN3CCCC3)C(=O)Nc3cccc(Cl)c3)cc12 |  | active: 11.2 µM
18 | CC(OC(=O)CCN=C1NS(=O)(=O)c2ccccc21)C(=O)Nc1ccc(N(C)C)cc1 (stereo not drawn) |  | inconclusive [inhibitor, partial curve, poor fit]
19 | Cc1ccc2c(c1)/C(=C/c1ccccc1)C(=O)N2 | inactive: -19.6% | 
20 | O=C(NCCCN1CCOCC1)c1cc(-c2ccc(F)cc2)on1 | inactive: -7.56% | 
21 | O=C(NNC(=O)C1CCN(Cc2ccc(Cl)c(Cl)c2)CC1)c1cccs1 |  | inconclusive [inhibitor, partial curve]
22 | CCOC(=O)C1=CN(Cc2cccc(Br)c2)S(=O)(=O)N(C)C1C (stereo not drawn) |  | inconclusive [inhibitor, single point]
23 | O=C(COC(=O)C1CC(=O)N(Cc2ccccc2)C1)c1ccc(F)cc1 (stereo not drawn) | inactive: 5.74% | 

Row | SMILES | activity change, negative = inhibition | Potency
24 | COc1cccc(C(=O)N(Cc2ccccc2)Cc2cc3cc4c(cc3[nH]c2=O)OCCO4)c1 |  | inconclusive [inhibitor, single point]
25 | COc1cccc(N2CCN(S(=O)(=O)c3ccc4c(c3)N(C(C)=O)CCO4)CC2)c1 |  | inconclusive [inhibitor, single point]
26 | COC(=O)c1scc(C#N)c1N/N=C(\C#N)S(=O)(=O)c1ccc(Cl)cc1 |  | inconclusive [inhibitor, single point]
27 | COc1ccc(NC(C)=O)cc1S(=O)(=O)N(C)Cc1c(C)nn(-c2ccccc2)c1C | inactive: -22.1% | 
28 | COc1ccc(OC)c(NC(=O)CC2SC(=Nc3ccccc3)N(CCc3ccccn3)C2=O)c1 (stereo not drawn) | inactive: -15% | 
29 | COCCOC(=O)C1=C(C)N=c2s/c(=C\c3cccs3)c(=O)n2C1c1cccs1 (stereo not drawn) |  | inactive
30 | CC(=O)c1cccc(NC(=S)NCCc2ccc(Cl)cc2)c1 |  | inconclusive [inhibitor, single point]
31 | NC(=O)/C=C\c1cn(-c2ccccc2)nc1-c1ccc2c(c1)OCCO2 |  | inconclusive [inhibitor, single point]
32 | O=C(Nc1ccc2oc(-c3cccnc3)nc2c1)c1cc2ccccc2o1 |  | inconclusive [inhibitor, single point]
33 | COc1ccc(-c2cc(=O)c3ccccc3s2)cc1 |  | inconclusive [inhibitor, partial curve, poor fit]
34 | CCN(CC)c1cc(Cl)c2nonc2c1N | inactive: 10% | 
35 | Cc1cccc(N2CCN(C(=S)Nc3ccc4nc(N5CCN(C)CC5)cc(C)c4c3)CC2)c1C |  | inconclusive [inhibitor, single point]
36 | CCOc1ccccc1N1CCN(C(=O)COc2ccc3c(C)cc(=O)oc3c2)CC1 |  | inconclusive [inhibitor, partial curve]
37 | COc1ccc(-c2nn(-c3ccccc3)cc2C(=O)OCC(=O)c2ccc(C)c([N+](=O)[O-])c2)cc1 |  | active: 7.08 µM
38 | CC(=O)Nc1cccc(C(=O)OCc2csc(CC(=O)Nc3ccccc3C)n2)c1 | inactive: -4.86% | 
39 | NC(=S)NN=CCn1cc([N+](=O)[O-])c(=O)[nH]c1=O | inactive: 17.8% | 
40 | COc1ccccc1-c1nnc(SCC(=O)Nc2nc(-c3ccccc3)cs2)n1C |  | inconclusive [inhibitor, full curve, poor fit]
41 | Cn1c(Oc2ccc(Cl)cc2)c(C=O)c2ccccc21 |  | inconclusive [inhibitor, single point]
42 | CCCCc1ccc(NC(=O)CSCc2cc(=O)[nH][nH]2)cc1 |  | inconclusive [inhibitor, single point]
43 | COc1ccc(C(=O)OCC(=O)NCc2ccco2)cc1S(=O)(=O)N1CCN(c2cccc(Cl)c2)CC1 |  | inconclusive [inhibitor, single point]
44 | Nc1nc(SCc2ccccc2)n[nH]1 | inactive: -6.07% | 
45 | CCOC(=O)c1cc2c(C)n(-c3ccc(N(C)C)cc3)c(C)c2cc(C(=O)OCC)c1=O | inactive: -11% | 
46 | COc1ccc(Cc2nc3ccc(C(=O)N(C)Cc4nccs4)cc3o2)cc1OC |  | inconclusive [inhibitor, full curve]

Row | SMILES | activity change, negative = inhibition | Potency
47 | CCOC(=O)[C@]12Cc3ccsc3[C@H]1N(Cc1ccccc1)C(=O)c1ccccc12 |  | inconclusive [inhibitor, single point]
48 | CN(Cc1ccc(F)cc1)C(=O)c1cc(S(=O)(=O)N2CCCCC2)ccc1N1CCOCC1 |  | inconclusive [inhibitor, single point]
49 | CCOC(=O)c1cnc2c(OC)cccc2c1N1CC(C)CC(C)C1 (stereo not drawn) |  | active: 12.6 µM
50 | O=C(CCC1CCCCC1)Nc1ccccc1-c1ccccc1 | inactive: 9.72% | 
51 | COc1cc(/C=N/N2C(=O)CSC2=S)cc(Br)c1O | inactive: -7.88% | 
52 | Cc1cccc(NC(=S)N(CCCN2CCCC2)Cc2cccn2Cc2ccc(Cl)cc2)c1 |  | inconclusive [inhibitor, partial curve]
53 | COc1ccc(CCn2c(NN)nc3c2c(=O)[nH]c(=O)n3C)cc1 |  | inconclusive [inhibitor, single point]
54 | CC(C)C(=O)c1cc2c(cc1NC(=O)c1cccs1)OCCO2 |  | inconclusive [inhibitor, partial curve]
55 | COc1ccc(NS(=O)(=O)c2ccc(C)c(NC(=O)NC3CCCCC3)c2)cc1 |  | inconclusive [inhibitor, partial curve, poor fit]
56 | Cc1cc2oc(=O)cc(C)c2cc1NC(=O)CCl |  | inconclusive [inhibitor, full curve]
57 | O=C(NC1CCCC1)c1ccc2c(c1)N(Cc1ccc(F)cc1)CCS2 |  | inconclusive [inhibitor, single point]
58 | COc1ccc(NC(=S)N(CCCN2CCCC2)Cc2cccn2Cc2ccc(Cl)cc2)cc1Cl |  | inconclusive [inhibitor, partial curve]
59 | CCCS(=O)(=O)NCCc1csc(-c2ccc(OC)c(OC)c2)n1 |  | inconclusive [inhibitor, partial curve]
60 | COc1ccc(-c2cc(C(=O)N/N=C/c3sccc3C)c3ccccc3n2)c(OC)c1 |  | inconclusive [inhibitor, partial curve]
61 | CCOc1ccccc1CN1CCCC(CNC(=O)Cc2ccc(OC)cc2)C1 (stereo not drawn) | inactive: -14.9% | 
62 | CN(C)S(=O)(=O)Oc1ccc(Cl)cc1C(=O)Nc1ccc(F)cc1F |  | inconclusive [inhibitor, partial curve]
63 | C/C(=N\NC(=O)CSCc1ccccc1Cl)c1cc(O)ccc1O |  | inconclusive [inhibitor, single point]
64 | COc1ccc(OC)c2c1cc(C(=O)N[C@@H](C)C(=O)N[C@@H](C(=O)O)c1ccccc1)n2C | inactive: 13.7% | 
65 | CCOc1cc(N2CCOCC2)c(OCC)cc1NC(=O)CSc1nnc(N)s1 | inactive: -12% | 
66 | COc1ccc2oc(C(=O)Nc3nnc(C)s3)c(C)c2c1 | inactive: -7.15% | 
67 | CC(=O)N1CC(C)Sc2ccc(S(=O)(=O)NCc3ccc(Cl)cc3)cc21 (stereo not drawn) |  | inconclusive [inhibitor, single point]
68 | CC1(C)CC(=O)C2=C(C1)N(CCN1CCOCC1)C1=C(C(=O)CC(C)(C)C1)C2c1cccc(F)c1 |  | inactive
